# Article PMC4336329 (PLoS ONE, 2015)
# The campaign covered roughly 310,000 compounds. About 14,000 (4.5%) showed an effect of 50% or more. The effect is printed as a negative number. This is one part of the list.
# Target: human ether-à-go-go-related gene (hERG) potassium channel (human, UniProt Q12809)
# Assay: primary screen, population patch clamp on CHO cells stably expressing hERG
# 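Note: peak tail current of the secondary pulse compared with the same well before compound.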
# human ether-à-go-go-related gene (hERG) potassium channel, sequence (Q12809 whole entry, looked up): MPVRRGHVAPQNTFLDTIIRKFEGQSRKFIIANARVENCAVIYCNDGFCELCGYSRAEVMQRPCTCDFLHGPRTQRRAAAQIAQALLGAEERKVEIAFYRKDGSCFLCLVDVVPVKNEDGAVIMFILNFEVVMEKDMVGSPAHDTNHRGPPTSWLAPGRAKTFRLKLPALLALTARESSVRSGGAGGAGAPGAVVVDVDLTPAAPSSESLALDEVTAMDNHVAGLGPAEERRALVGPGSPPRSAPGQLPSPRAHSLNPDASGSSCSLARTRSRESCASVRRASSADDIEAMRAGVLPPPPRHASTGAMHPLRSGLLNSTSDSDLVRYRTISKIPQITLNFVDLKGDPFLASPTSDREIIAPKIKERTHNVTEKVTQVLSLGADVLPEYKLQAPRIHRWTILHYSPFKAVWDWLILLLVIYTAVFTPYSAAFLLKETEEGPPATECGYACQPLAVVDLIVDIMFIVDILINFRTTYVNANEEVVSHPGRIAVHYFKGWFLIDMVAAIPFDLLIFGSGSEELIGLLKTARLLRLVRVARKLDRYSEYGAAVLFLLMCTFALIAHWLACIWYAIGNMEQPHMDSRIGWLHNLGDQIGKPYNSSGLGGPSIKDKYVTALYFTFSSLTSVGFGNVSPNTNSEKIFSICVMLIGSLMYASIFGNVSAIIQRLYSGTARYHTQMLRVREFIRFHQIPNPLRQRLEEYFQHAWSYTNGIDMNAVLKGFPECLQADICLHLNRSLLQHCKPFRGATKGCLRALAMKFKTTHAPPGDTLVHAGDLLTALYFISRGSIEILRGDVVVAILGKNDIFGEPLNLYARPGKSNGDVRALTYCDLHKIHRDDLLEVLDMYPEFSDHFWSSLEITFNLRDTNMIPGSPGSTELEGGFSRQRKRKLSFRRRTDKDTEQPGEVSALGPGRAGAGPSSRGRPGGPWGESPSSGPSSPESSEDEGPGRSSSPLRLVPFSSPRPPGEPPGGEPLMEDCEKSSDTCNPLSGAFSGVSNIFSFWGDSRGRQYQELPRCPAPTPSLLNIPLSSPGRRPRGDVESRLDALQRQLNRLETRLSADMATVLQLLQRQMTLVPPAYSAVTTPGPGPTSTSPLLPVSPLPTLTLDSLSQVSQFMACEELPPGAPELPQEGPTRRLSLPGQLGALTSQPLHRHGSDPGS
row,SMILES,"hERG current change (%, negative = inhibition) at 10uM [%]"
1,CCc1nc2ccc(C(=O)NCc3ccc(C)o3)cc2nc1CC,-26.6
2,Cc1ccc(OCCn2c(=S)[nH]c3ccccc32)c(C(C)C)c1,14
3,Cc1cccc(CC2SC(N3CCN(c4ccccc4)CC3)=NC2=O)c1 (stereo not shown),-53.5
4,CCC1Sc2ccc(S(=O)(=O)CCC(=O)Nc3ccc(OC(F)(F)F)cc3)cc2NC1=O (stereo not shown),15.9
5,Cc1ccc(NC(=O)N(Cc2cccnc2)Cc2ccco2)cc1C,-27.2
6,C=CCOC(=O)C1=C[C@@H](c2ccc(Br)cc2)C[C@@H](OCc2ccc(CO)cc2)O1,-14.7
7,O=C(O)CN1CCN(C(c2ccccc2)c2ccccc2)CC1,30.4
8,Brc1ccc(-c2cn3c(n2)SCC3)cc1,11.2
9,COc1cc(C(=O)N2CCN(C/C=C/c3ccccc3)CC2)cc(OC)c1C,-30.2
10,C/C(=N/NC(=O)Cc1cccn1C)c1ccccc1,9.2
11,Cc1ccnc(NS(=O)(=O)c2ccc(N3C(=O)c4ccccc4C3=O)cc2)n1,-2.73
12,CCCCn1cnc2sc(-c3ccccc3)cc2c1=O,-0.714
13,Cc1ccccc1C(=O)Nc1c(-c2cccs2)c(=O)c2ccccc2n1C,16
14,CCOc1ccccc1NC(=O)Nc1ccc2c(c1)CCC2,-34.5
15,CC1(C)C(=O)OC(/C=C\c2ccccc2)C(C)(C)C1=O (stereo not shown),-0.637
16,O=C(NCc1ccco1)c1ccc(NS(=O)(=O)c2cccc([N+](=O)[O-])c2)cc1,12
17,CC(NC(=O)CSc1nc2c(cc1C#N)CN(C)CC2)c1ccccc1 (stereo not shown),-20.3
18,O=C(NCc1ccccn1)c1ccc(Cl)s1,1.79
19,Cn1c(C(=O)c2ccncc2)cc2ccccc21,-21.3
20,O=C1CN(C(=O)CSc2nc3c(cnn3-c3ccccc3)c(=O)[nH]2)c2ccccc2N1,1.82
21,COc1c(Cl)cc(C(=O)NCc2ccco2)cc1Cl,-8.64
22,NNC(=S)Nc1ccccc1Cl,-0.568
23,COC(=O)C1=C(C(=O)OC)[C@@H]2N(Cc3ccccc3)c3ccccc3[C@@]23C[C@@H](C(=O)OC)N=C3N1,-17.4

row,SMILES,"hERG current change (%, negative = inhibition) at 10uM [%]"
1,Nc1nc(NCC2CCCO2)nc(Nc2cccc(F)c2)c1[N+](=O)[O-] (stereo not shown),5.23
2,Cc1no[n+]([O-])c1COc1cccc(/C=N/Nc2nncn2N)c1,8.32
3,COc1ccc(CCC(=O)NNC(=O)Nc2ccc(C(C)=O)cc2)cc1,16.8
4,Cc1ccc(C(=O)NCc2ccc3c(c2)OCO3)cc1,1.64
5,C=CCOc1c(Cl)cc(CNn2cn[nH]c2=S)cc1OC,13.1
6,O=C(Nc1cccc(Cl)c1)N(CCCN1CCOCC1)Cc1ccccc1F,-64.5
7,Cc1cc(-c2nnc(CCC(=O)NCCc3ccccc3F)o2)no1,-16.8
8,C[C@]12CCC(=O)C=C1CC[C@@H]1[C@@H]2C(=O)C[C@]2(C)C(=O)CC[C@@H]12,7.99
9,CCN1C(=O)Nc2cccc3cccc1c23,1.65
10,COc1ccccc1Nc1ncnc2ccccc12,-6.1
11,CCN(C(=O)Cn1c(=O)oc2ccccc21)c1ccc(C)c(C)c1,-6.52
12,O=C(Nc1sc2c(c1C(=O)O)CCC2)c1ccccc1,5.69
13,O=[N+]([O-])c1ccc(CN2CCC(Cc3ccccc3)CC2)cc1,-55.1
14,CC1=CC(c2ccccc2)n2nnnc2N1 (stereo not shown),18.3
15,CC(/C=N\NC(=O)CN1CCN(S(=O)(=O)c2ccc(C)cc2)CC1)=C\c1ccccc1,-68.1
16,Cc1cc(Cl)c(S(=O)(=O)NC(C(=O)O)c2ccccc2)cc1OCC(N)=O (stereo not shown),-0.102
17,Cn1c(=O)oc2cc(S(=O)(=O)N3CCCc4ccccc43)ccc21,-20.8
18,COCC(=O)N1CCC(Oc2ccc(C(=O)NC(C)c3csc(C)n3)cc2)CC1 (stereo not shown),10.4
19,O=C(NCc1nc2ccccc2[nH]1)c1cccc(S(=O)(=O)N2CCCC2)c1,1.26
20,COc1ccccc1-c1sc2cc3c(cc2c1C#CC1(O)CCCCC1)OCO3,13.2
21,COc1ccc(-n2c(Cc3cccn3C)nnc2SCC(=O)Nc2ccc(C)cc2C)cc1,-39.3
22,CC(=O)c1c(C)cc(C)c(CSc2ccccn2)c1C,17.2
23,CC(C)OC(=O)Cn1nc(C(F)(F)F)c2c1CCCC2,9.23

row,SMILES,"hERG current change (%, negative = inhibition) at 10uM [%]"
1,COc1ccc(C)cc1NC(=O)CNc1ccccc1CN(C)C1CCCCC1,-19.6
2,CCCNC(=O)C1CC(c2ccc(C(F)(F)F)cc2)=NO1 (stereo not shown),-23.8
3,Cl.Clc1cccc(CSC2=NCCCN2)c1,-0.133
4,CN(C(=O)CSc1nc(-c2ccccc2)cs1)C1CCS(=O)(=O)C1 (stereo not shown),-19.6
5,Cc1ccc(-c2nnc(N(C)C(=O)c3ccccn3)s2)cn1,8.47
6,Cc1ccc(NC(=O)CCC(=O)NNS(=O)(=O)c2ccc(Cl)cc2)cc1C,1.62
7,Fc1ccc(-c2nc3nc4ccccc4nc3n2Cc2ccco2)cc1,-43.2
8,COc1ccccc1NC(=O)C(O)C(O)C(=O)Nc1ccccc1OC (stereo not shown),10.9
9,Cc1cccc(OCCSc2nc3ccccc3n2CC(=O)O)c1,10.8
10,COc1ccccc1NC(=O)Cc1noc(CSc2nnc(N)s2)n1,12.6
11,Cc1ccc(N2CC(C(=O)Nc3cccc(F)c3)CC2=O)cc1 (stereo not shown),-6.24
12,Cc1cccc(N2CC(O)=C(c3nc4ccccc4n3C)C2=N)c1,-24
13,Cc1csc(NC(=O)CCS(=O)(=O)c2ccc(Br)cc2)n1,-4.86
14,CCCCC(=O)NNC(=S)NC(=O)c1cccc([N+](=O)[O-])c1,9.64
15,COc1ccc(/C=N/NC(=O)CCn2cnc3ccccc32)cc1,1.5
16,CCCCNC(=O)C1CCCN(S(=O)(=O)c2ccc(-n3cnnn3)cc2)C1 (stereo not shown),-24.8
17,CCCCCc1cc(=O)oc2c(C(CCN3CCN(c4ccccc4)CC3)c3ccc4c(c3)OCO4)c(OC)cc(OC)c12 (stereo not shown),18.7
18,COc1cccc(NCc2cc(=O)oc3cc(-c4ccccc4)c(O)cc23)c1,12.6
19,Cc1ccc(CNc2ccc3c(c2)OCO3)cc1,-4.29
20,O=C(c1ccc2c(c1)OCO2)N1CCNc2ccccc2C1,4.12
21,O=C(c1ccc(F)cc1)n1c(NCc2ccccc2)n[nH]c1=S,4.14
22,COC(=O)c1cc(Cl)c(NC(=O)Cc2ccccc2)cc1OC,-1.89
23,Cc1cc(N2CCOCC2)ccc1/C=C\[N+](=O)[O-],-15.6

row,SMILES,"hERG current change (%, negative = inhibition) at 10uM [%]"
1,COc1ccc(N2CCN(S(=O)(=O)c3ccc(-c4cc(C)no4)s3)CC2)cc1,16.2
2,CN(CC(=O)N1CCOCC1)C(=O)CSc1nc2ccccc2s1,-0.119
3,Cc1ccnc(NC(=O)CCC(=O)N(CC(=O)NCCc2ccccc2)c2ccc(F)cc2)c1,1.18
4,Cc1cccc(NC2=C(Cl)C(=O)OC2OC(C)C)c1 (stereo not shown),11.3
5,CCn1nc(C(=O)NNC(=O)C2CSC3(C)CCC(=O)N23)c2ccccc2c1=O (stereo not shown),5.77
6,Cc1ccc(NS(=O)(=O)c2cc(C(=O)NCCSc3ccc(C)cc3)ccc2C)cc1,3.25
7,Oc1ccccc1/C=N/n1cnnc1,18.9
8,CN(C)c1ccc(CNc2ccccn2)cc1,11.2
9,CSCC[C@H](NC(=O)NCc1ccccc1F)C(=O)O,20.1
10,Cl.O=S(=O)(c1cccs1)N1CCN(C/C=C/c2ccccc2)CC1,-49.3
11,O=[N+]([O-])c1ccccc1S(=O)(=O)N1CCCc2ccccc21,-3.22
12,COc1ccc(/C=N/NC(=O)C(=O)/C=C2\NC3(CCCC3)Cc3ccccc32)cc1,8.03
13,COc1cc(/C=C/C(=O)O)ccc1S(=O)(=O)N1CCCc2ccccc21,18.7
14,CC(C)C[C@H]1CN=C(Nc2ccccc2)N1CCc1ccc(F)cc1,-62.4
15,CC(=O)OCCCNc1cc(SCc2ccco2)c2nonc2c1[N+](=O)[O-],-46
16,O=S1(=O)c2ccccc2Nc2ccccc21,14.2
17,CCn1c(SCC(=O)N/N=C(/C)c2ccncc2)nc2ccccc21,-19.4
18,Cc1ccc(/C=N/NC(=O)c2nnn(-c3nonc3N)c2C)o1,-4.59
19,Cc1cc(OCC(=O)NNC(=O)c2cccnc2)cc(C)c1Cl,0.465
20,COc1ccc(-n2nc3c(c2NC(=O)CC(C)C)CS(=O)C3)cc1 (stereo not shown),17.8
21,CC1(C)c2ccccc2-c2nc3ccccc3cc2C1O (stereo not shown),4.1
22,Cc1ccc(OC(C)C(=O)Nc2ccc(S(=O)(=O)Nc3cc(C)on3)cc2)cc1 (stereo not shown),-4.93
